Structures are written as SMILES. In all, about 110,000 compounds were measured (“z-score”: median about -0.1, highest 2% from about 2 on). Some of the results follow. Calls of active or inactive are those of the source.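 Rule for the calls: active = z-score in the third read window above 3 or below -3; inactive = the rest.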

This experiment deals with Metabotropic glutamate receptor 8 (Rattus norvegicus) (UniProt P70579). The experiment in a line: mGluR8 Gi/Go-coupled signaling modulation – cell-based, rat, thallium flux, HTS, primary screen (AID 488969). To be noted: HEK293 rat mGluR8, GIRK (G protein-gated inwardly rectifying potassium channel) thallium flux, FluoZin2; at 10 µM; stronger effect = higher value; submaximal glutamate (EC20) added with thallium.
UniProt P70579, sequence (P70579 whole entry, looked up): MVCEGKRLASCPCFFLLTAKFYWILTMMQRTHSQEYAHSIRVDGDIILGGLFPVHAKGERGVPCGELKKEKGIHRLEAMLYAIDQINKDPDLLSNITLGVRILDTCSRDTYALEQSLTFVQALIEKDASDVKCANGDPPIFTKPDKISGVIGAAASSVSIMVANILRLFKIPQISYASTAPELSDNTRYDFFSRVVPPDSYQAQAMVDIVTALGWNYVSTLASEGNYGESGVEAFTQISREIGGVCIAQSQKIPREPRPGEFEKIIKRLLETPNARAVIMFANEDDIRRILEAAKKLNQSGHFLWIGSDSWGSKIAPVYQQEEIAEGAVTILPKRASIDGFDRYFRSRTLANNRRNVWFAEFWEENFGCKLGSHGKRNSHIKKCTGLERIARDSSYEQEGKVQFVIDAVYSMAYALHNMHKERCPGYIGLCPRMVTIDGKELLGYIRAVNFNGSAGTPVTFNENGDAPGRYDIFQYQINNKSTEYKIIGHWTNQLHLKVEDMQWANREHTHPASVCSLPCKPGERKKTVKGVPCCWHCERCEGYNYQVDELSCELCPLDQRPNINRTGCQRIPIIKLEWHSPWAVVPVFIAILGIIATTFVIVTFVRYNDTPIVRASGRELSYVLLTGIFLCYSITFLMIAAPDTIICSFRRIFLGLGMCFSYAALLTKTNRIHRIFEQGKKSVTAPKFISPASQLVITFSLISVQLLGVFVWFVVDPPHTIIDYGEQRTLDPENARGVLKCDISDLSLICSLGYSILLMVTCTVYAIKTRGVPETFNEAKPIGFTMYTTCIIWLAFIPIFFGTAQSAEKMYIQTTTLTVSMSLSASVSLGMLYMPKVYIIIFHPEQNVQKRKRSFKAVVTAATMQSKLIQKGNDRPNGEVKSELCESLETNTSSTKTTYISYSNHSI
As for `COc1ccc(O)c(/C=N/NC(=S)Nc2cccc(S(=O)(=O)N(C)C)c2)c1`, the z-score turned out to be 0.0404.

With `O=C(C(NS(=O)(=O)c1cccs1)c1ccccc1)N1CCN(c2ccccc2F)CC1` (stereo not drawn), the z-score was -0.171.

Compound `Cc1nn(-c2ccccc2)c(N)c1C1(O)C(=O)N(C(C)C)c2ccccc21` (stereo not drawn) had a z-score of 0.371.

Take `Cc1ccc(SCc2nnc(N)s2)cc1`: the z-score was 0.0236.

Compound `O=C(O)c1ccc(NS(=O)(=O)c2ccc(Cl)cc2)cc1` showed a z-score of -0.0545.

Regarding `CC(C)NC(=O)c1ccccc1NC(=O)CN(c1ccc2c(c1)OCO2)S(C)(=O)=O`, the z-score came out at 0.503.

`CC(NC(=O)NCCCC(=O)O)(C(F)(F)F)C(F)(F)F` had a z-score of -0.354.

Compound `CCOCCCNCc1cccc(OC)c1` displayed a z-score of 0.85.

In turn, `CCn1c2ccccc2c2cc(C3C(C#N)=C(C)NC(C)=C3C#N)ccc21` returned a z-score of 0.239.

In turn, `c1ccc(-c2noc(CSc3nnc(Cc4cccs4)n3-c3ccccc3)n2)cc1` yielded a z-score of 0.888.

Take `COC(=O)c1cc(OC)c(OC)cc1NC(=O)CCC1CCCC1`: the z-score was determined as 0.273.

On to `O=C(COc1ccccc1)Nc1nc(-c2cccs2)cs1`, for which the z-score was determined as 2.15.

Compound `Cc1cc(NC(=O)c2cccc(COc3ccc(Br)cc3)c2)no1` gave a z-score of 0.0753.

Turning to `Cc1ccc(-c2noc(CC(c3ccccc3)c3ccccc3)n2)cc1`, the z-score was -0.456.

The compound `CC(C)=CCC/C(C)=C/CN(CC(C)O)CC(C)O` (stereo not drawn) yielded a z-score of 0.219.

Compound `CCn1c(CSc2nnc(-c3cccnc3)n2-c2ccccc2C)nc2cc(C(=O)O)ccc21` had a z-score of 0.919.

`CCS(=O)(=O)c1ccc2oc(Nc3ccc(C(C)C)cc3)nc2c1` registered a z-score of 0.431.

Consider `CCN1CCc2nc(NC(=O)c3ccc4c(c3)OCCO4)sc2C1`, for which the z-score came to 0.181.

For the compound `Cc1ccc(CNC(=O)C2CC(=O)N(c3ccc(OCC(=O)N4CCCC4)cc3)C2)cc1` (stereo not drawn), the z-score was -0.11.

The compound `CC(=O)c1cn(CC(=O)Nc2ccccc2C)c2ccccc12` came in with a z-score of -0.744.

As to `Cc1ccc(C)c(NC2=NCC(=O)N2C2CCCCC2)c1`, the z-score is -0.773.

Compound `O=C(CC1CCCCC1)Nc1ccccc1-c1ccccc1` registered a z-score of -0.225.

Regarding `Cc1cc(NC(=O)CCCC(=O)NCc2cccs2)no1`, the z-score is 0.538.

Consider `Fc1ccc(Nc2cccc3nccnc23)cc1`, for which the z-score came out at 0.914.

`CCc1c(C)nc2c(OC)cccc2c1SCCC(=O)O`: the z-score is -0.422.

Regarding `CCn1c(Cc2ccc(OC)cc2)nnc1SCC(=O)N1CCN(c2ccccc2)CC1`, the z-score stood at 0.352.

Turning to `C/C(=C\C(=O)c1ccc(C)o1)Nc1ccc2c(c1)OCO2`, the z-score was -0.339.

Compound `O=C(CCS(=O)(=O)c1cccs1)Nc1ccc(C(=O)NCc2ccc(F)cc2)cc1` showed a z-score of 0.349.

As for `COc1cccc(OCC(=O)NNC(=O)Cc2cccs2)c1`, the z-score was -0.0246.

Take `CC1(C)Cc2c(c(-c3ccco3)[nH]c(=O)c2C#N)CO1`: the z-score worked out at 0.117.

Compound `CCN(CC)c1ccc(/C=N/Nc2cccc(C)c2)c(O)c1` gave a z-score of -0.281.

`COc1ccc(-c2nc3cc(C)ccn3c2NCC2CCCO2)cc1OC` (stereo not drawn) came in with a z-score of -1.39.

As to `Cc1c(C(=O)NCCC2=CCCCC2)oc2ccc(S(=O)(=O)N3CCOCC3)cc12`, the z-score was -1.03.

`COc1cc(OC)c(OC)cc1CN1CCCC(C(=O)N2CCCCC2)C1` (stereo not drawn): the z-score amounted to 0.419.

Take `Cc1cccc(-n2nc3c(c2NC(=O)c2ccc(Br)o2)CSC3)c1`: the z-score was -0.288.

In turn, `Cc1ccc(C)c(NC(=O)c2ccc(N(C)S(C)(=O)=O)cc2)c1` showed a z-score of 0.222.

On to `Cc1cccc(NC(=O)c2onc3c2CCCC3)c1C`, for which the z-score is -0.00447.

In the case of `C/C(=N\NC(=O)c1ccc(Cl)cc1)c1ccc(Br)s1`, the z-score was active: 8.88.

`O=C(CN1CCCC1)N1CCCc2c1c(=O)oc1ccc(OCc3ccccc3)cc21` displayed a z-score of -0.528.

Consider `COC(=O)COc1ccc(S(=O)(=O)N2CCN(c3ccccc3F)CC2)cc1C`, for which the z-score is -0.0482.

`C/C(=N\NC(=O)CNc1cccc(C)c1)c1ccc(Br)s1` showed a z-score of 0.0989.

Regarding `Brc1ccc(C2Nc3cccc4cccc(c34)N2)o1`, the z-score was -1.23.

`COc1cccc(S(=O)(=O)N2CCN(c3ccccc3F)CC2)c1` showed a z-score of 0.00191.

Turning to `COC(=O)c1[nH]c2ccc(C)cc2c1NC(=O)CN1CCCC(C)(C)C1`, the z-score was -0.603.

For the compound `COP(=O)(OC)c1nc(-c2cccc3ccccc23)oc1NCCc1ccccc1`, the z-score is -0.188.

The compound `CCOc1ccc(C(=O)NCC(=O)OCC(=O)Nc2ccccc2OC)cc1` came in with a z-score of -0.281.

For the compound `CN(CC(=O)Nc1cccc(F)c1)C(=O)CCCc1cccs1`, the z-score is -0.141.

For the compound `COc1ccccc1C(=O)N1CCCC1(C#N)c1ccccc1` (stereo not drawn), the z-score was -0.00908.

For the compound `Cc1ccc(OC(=O)CCC(=O)Nc2ccc(S(=O)(=O)Nc3cc(C)on3)cc2)cc1`, the z-score is -0.0291.

`CN1CCN(c2nc3c(c(=O)n(C)c(=O)n3C)n2Cc2cccc3ccccc23)CC1`: the z-score is -2.98.

`Cc1cc(OCC(=O)Nc2ccccc2F)nc(C(C)C)n1` yielded a z-score of 0.179.

`COc1ccc(-c2coc3cc4oc(=O)c5ccccc5c4cc23)cc1F`: the z-score was -0.146.

Consider `CC(NC(=O)c1ccccc1)c1nc2ccccc2n1Cc1ccccc1F` (stereo not drawn), for which the z-score is -0.264.

Compound `COC(=O)c1ccccc1NC(=O)N1CCN(S(=O)(=O)c2ccc(Cl)cc2)CC1` had a z-score of -0.476.

`CCc1ncc(C(O)c2cccc(OC)c2OC)n1C` (stereo not drawn) yielded a z-score of 0.954.

`CCCCN(Cc1ccco1)C(=O)c1cc2c(=O)[nH]c3ccc(C)cc3c2s1` showed a z-score of 0.0051.

Compound `CC(C)c1ccc(N(CC(=O)N/N=C/c2ccc(OC3CSC3)cc2)S(=O)(=O)c2ccccc2)cc1` showed a z-score of -0.152.

The compound `C=CCc1c(C)nc(C)nc1N/N=C/c1ccccc1O` registered a z-score of 2.25.

Consider `CCOCCCNC(=O)C(NC(=O)CNC(=O)c1ccccc1)c1ccccc1` (stereo not drawn), for which the z-score is -0.0841.

On to `Cc1nc2c(C)cccc2cc1C(=O)N/N=C/c1cccnc1`, for which the z-score was -0.392.

The compound `O=C(C1CC1)N(Cc1ccco1)c1nc(-c2ccccc2)cs1` showed a z-score of -0.135.

In the case of `COc1ccc(N(CC(=O)NCc2cccs2)S(=O)(=O)c2cccnc2)cc1`, the z-score was -0.456.

The compound `COc1cc2c(cc1OC)C(c1cccs1)NCC2` (stereo not drawn) yielded a z-score of -0.269.

`Cc1cc(Cl)ccc1OCC(=O)NCc1ccncc1` yielded a z-score of -0.405.

Take `Cc1ccc(C2OCC3(CO)COC(c4ccc(C)cc4)N23)cc1` (stereo not drawn): the z-score was -0.0099.

The compound `COCCNC(=O)c1onc(CSc2cc(C)ccc2C)c1C(=O)O` gave a z-score of -0.0769.

Compound `CC1=C(C(=O)Nc2ccccn2)C(c2ccccc2)n2ncnc2N1` (stereo not drawn) gave a z-score of -0.123.

The compound `COc1ncnc2c1N=C1CC(C)(C)CC(N)=C1S2` showed a z-score of 0.0669.

In turn, `Cc1n(CC(O)COC2CCCCC2)c2ccccc2[n+]1C` (stereo not drawn) showed a z-score of 0.638.

Take `CN(C)c1ccc([N+](=O)[O-])cc1C(=O)O`: the z-score is -0.133.

In turn, `O=C(Nc1ccccc1[N+](=O)[O-])C1C(c2ccccc2)=C1c1ccccc1` displayed a z-score of -0.229.

Turning to `Cc1nn(C)cc1C(=O)Nc1cc(Oc2ccc(Cl)cc2)cc([N+](=O)[O-])c1`, the z-score was -0.126.

Compound `CCCCOC(=O)c1ccc(NC(=O)Nc2ccc(OC)c(OC)c2)cc1` registered a z-score of -0.113.

Take `C=CCOc1cccc(C2C(C(=O)c3ccc(C)o3)=C(O)C(=O)N2Cc2ccncc2)c1` (stereo not drawn): the z-score was -1.94.

The compound `COc1ccc(CC(=O)Nc2ccc(-c3cn4ccccc4n3)cc2)cc1OC` showed a z-score of -0.363.

As to `COc1cc(NC(=O)COC(=O)c2nc3nc(C)cc(C)n3n2)cc(OC)c1`, the z-score is -0.759.

Compound `COc1ccc(/C=N/NC(=O)CSCc2ccc([N+](=O)[O-])cc2)cc1OC` returned a z-score of -0.208.

For `O=C(CCC(=O)OCCCC(F)(F)C(F)(F)F)Nc1ccc(Cl)cc1Cl`, the z-score was -0.26.

Compound `COc1cc(C(=O)NCCc2cn3ccc(C)cc3n2)cc(OC)c1OC` came in with a z-score of -0.397.

`COc1ccc(C)cc1S(=O)(=O)NCCc1ccccc1` gave a z-score of -0.105.

As to `CCCCOC(C)n1cc(F)c(=O)[nH]c1=O` (stereo not drawn), the z-score is -0.225.

Compound `O=S(=O)(Nc1ccc(-n2cccc2)cc1)c1ccc(Cl)cc1Cl` registered a z-score of -0.0372.

Take `CC(C)c1ccc2occ(-c3nn[nH]n3)c(=O)c2c1`: the z-score was active: 3.29.

`CC(C)(C)NC(=O)c1ccccc1-c1nc(-c2ccccc2Cl)no1` came in with a z-score of -0.71.

The compound `CCCN1C(=S)SC(C)(C)C1/[N+]([O-])=C/c1cccnc1` (stereo not drawn) yielded a z-score of -0.17.

Regarding `Cn1c(=O)c2c(nc3sccn32)n(C)c1=O`, the z-score was active: 3.7.

Regarding `Cc1nnc(SC2CC(=O)N(c3ccccc3)C2=O)s1` (stereo not drawn), the z-score is -0.0552.

The compound `Cc1cccc(N2CCN(C(=O)CCCn3c(=S)[nH]c4cc5c(cc4c3=O)OCO5)CC2)c1C` displayed a z-score of -0.839.

The compound `CC(=O)c1ccc(N2CCN(C(=O)c3ccc(Br)cc3)CC2)c(F)c1` displayed a z-score of 0.00713.

`Cc1cc(C)c2[nH]c(O)c(N=NC(=O)c3cc4c(s3)CCCC4)c2c1` had a z-score of -0.395.

With `COc1ccc2cc3cc(C(=O)NCc4ccco4)oc3nc2c1`, the z-score is -0.0316.

Compound `Cc1cccc(C)c1OCCn1nc(C(=O)O)c2ccccc2c1=O` came in with a z-score of 0.285.

For the compound `COc1cc(C(=O)NC(=S)NNC(=O)c2cnccn2)cc(OC)c1OC`, the z-score is -0.0805.

`COc1ccccc1Nc1nc(-c2sc(NC(=O)c3ccccc3)nc2C)cs1` displayed a z-score of -0.232.

Consider `CC(CC(C)C(=O)Nc1ccccc1C(C)(C)C)C(=O)O` (stereo not drawn), for which the z-score is -0.157.

`CCCCNC(=O)NNC(=O)c1ccoc1C` returned a z-score of 0.261.

On to `CO/N=C/NC(=O)N1OC[C@@H]2COc3ccc4ccccc4c3[C@@H]21`, for which the z-score came out at 0.0191.

In turn, `COc1cccc(C2CC(c3ccc(Cl)cc3)n3nc(N)nc3N2)c1` (stereo not drawn) returned a z-score of 0.802.

`O=C(c1cccnc1)N1CCc2ccccc21` came in with a z-score of -0.771.

Consider `OC1CNCc2cc3c(cc21)OCCO3` (stereo not drawn), for which the z-score is 0.593.

`O=C1c2ccccc2C(=O)N1CCCCSc1nnc2c(Cl)cc(Cl)cn12` displayed a z-score of -0.0762.

On to `Cc1cc(C)c2c(=O)[nH]c(SCC(=O)N3CCCCC3)nc2n1`, for which the z-score was -0.557.

Compound `Nc1nnc(-c2ccc(Cl)cc2)s1` came in with a z-score of 0.262.

For the compound `COc1cccc(C(=O)Nc2nnc(C(C)C)s2)c1`, the z-score was -0.451.

`CCOCCn1c(C(C)C)nc2ccccc21` displayed a z-score of 0.737.

`C=CCN1CCN(C(c2ccc(Cl)cc2)c2nnnn2CCc2ccc(OC)c(OC)c2)CC1` (stereo not drawn) showed a z-score of 2.29.

As for `Cc1ccc2c(c1)C(=O)C(=O)N2CC(=O)OC(C)C`, the z-score turned out to be 0.596.

The compound `CCOc1ccc(NC(=O)CSc2n[nH]c(=O)n2-c2ccccc2)cc1` came in with a z-score of 0.384.

With `Cn1c(=O)cc(SCC(=O)NCCC2=CCCCC2)c2ccccc21`, the z-score was -0.00869.

`O=C1COc2ccc(C(=O)COC(=O)CCc3ccc(S(=O)(=O)N4CCOCC4)cc3)cc2N1`: the z-score is 1.12.

`O=C(C1Cc2ccccc2CN1S(=O)(=O)c1cccs1)N1CCCCC1` (stereo not drawn) displayed a z-score of 0.27.

As to `c1coc(-c2nnc(-c3cccs3)o2)c1`, the z-score is -0.402.

`CN1C(=O)N(CN2CCCCC2)C2C1N(C)C(=O)N2CN1CCCCC1` (stereo not drawn): the z-score was determined as 0.636.

These data come from PubChem BioAssay AID488969 (Vanderbilt High Throughput Screening Facility, 2010).
